Measured values taken from PubChem BioAssay AID1347165 (National Center for Advancing Translational Sciences (NCATS), 2019).
The whole screen tested about 220,000 compounds, of which about 5,700 (2.6%) were called active. Inconclusive results, whose numbers are uncertain, are shown with a selection of clear calls. The call rests on the fitted dose curve; in most records, active means well fitted inhibition curve with a large enough effect; inconclusive means small, poorly fitted or top-dose-only effect; inactive means no such curve, though single readings can be large or run the other way. Potencies of inconclusive entries are doubtful fits and often do not repeat.
Further: nearly all actives have a fitted effect of over 70% in size.
Potency means the concentration at half of the fitted maximal effect; tags describe the fitted curve by direction and shape.
Wherever activity change, negative = inhibition is given: 0% is about no effect.

These molecules were tested against Lysine-specific demethylase 5B (Homo sapiens) (UniProt Q9UGL1) (assay: Primary screen for KDM5B Histone Demethylases FDH-coupled qHTS). Settings: FDH-coupled NADH fluorescence (FDH is formaldehyde dehydrogenase); activity change, negative = inhibition: at 57.7 µM (top of the series) unless noted.
Sequence of UniProt Q9UGL1 (Q9UGL1 whole entry, looked up): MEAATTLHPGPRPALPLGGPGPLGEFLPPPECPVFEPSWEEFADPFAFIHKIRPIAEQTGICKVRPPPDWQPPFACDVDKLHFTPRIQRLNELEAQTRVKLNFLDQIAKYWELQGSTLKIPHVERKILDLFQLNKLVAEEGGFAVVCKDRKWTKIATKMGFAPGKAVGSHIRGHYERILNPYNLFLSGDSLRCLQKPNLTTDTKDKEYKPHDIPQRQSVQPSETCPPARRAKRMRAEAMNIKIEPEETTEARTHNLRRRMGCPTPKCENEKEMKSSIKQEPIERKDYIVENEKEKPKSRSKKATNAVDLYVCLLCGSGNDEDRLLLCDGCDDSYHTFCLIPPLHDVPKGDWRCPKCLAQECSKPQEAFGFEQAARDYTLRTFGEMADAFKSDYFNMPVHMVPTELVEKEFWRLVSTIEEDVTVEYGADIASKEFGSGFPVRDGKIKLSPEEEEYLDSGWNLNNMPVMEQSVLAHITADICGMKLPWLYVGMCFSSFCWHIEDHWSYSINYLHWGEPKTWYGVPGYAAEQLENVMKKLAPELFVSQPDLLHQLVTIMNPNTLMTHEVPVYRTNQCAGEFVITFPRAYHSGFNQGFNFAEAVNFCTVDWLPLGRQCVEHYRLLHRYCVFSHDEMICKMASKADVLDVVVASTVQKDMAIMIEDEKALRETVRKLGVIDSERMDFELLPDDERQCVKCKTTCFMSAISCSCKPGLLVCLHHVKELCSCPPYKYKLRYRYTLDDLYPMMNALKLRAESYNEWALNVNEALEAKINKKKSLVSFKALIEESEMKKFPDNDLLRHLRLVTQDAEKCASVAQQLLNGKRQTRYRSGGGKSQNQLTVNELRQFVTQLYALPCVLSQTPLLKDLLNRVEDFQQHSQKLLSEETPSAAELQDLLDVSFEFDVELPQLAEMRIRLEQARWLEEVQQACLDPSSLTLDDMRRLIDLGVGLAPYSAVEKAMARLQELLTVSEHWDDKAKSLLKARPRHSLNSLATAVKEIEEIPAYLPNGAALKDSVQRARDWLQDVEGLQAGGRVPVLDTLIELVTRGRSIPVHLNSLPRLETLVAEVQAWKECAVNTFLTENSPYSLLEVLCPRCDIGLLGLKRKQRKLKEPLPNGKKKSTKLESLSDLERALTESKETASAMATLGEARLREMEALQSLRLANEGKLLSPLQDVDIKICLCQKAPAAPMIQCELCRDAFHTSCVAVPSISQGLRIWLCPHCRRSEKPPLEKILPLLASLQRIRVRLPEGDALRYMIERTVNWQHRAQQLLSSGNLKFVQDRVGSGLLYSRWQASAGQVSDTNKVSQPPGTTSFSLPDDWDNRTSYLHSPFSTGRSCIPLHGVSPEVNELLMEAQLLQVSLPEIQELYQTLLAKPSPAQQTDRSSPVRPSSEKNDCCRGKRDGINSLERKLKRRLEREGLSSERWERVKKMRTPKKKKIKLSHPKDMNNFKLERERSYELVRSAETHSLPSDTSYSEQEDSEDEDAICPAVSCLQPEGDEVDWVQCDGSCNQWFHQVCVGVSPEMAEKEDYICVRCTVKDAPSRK
Method in brief: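 KDM5BΔAP (200 nM final) in 50 mM HEPES pH 7.5, 0.01% Tween-20 was preincubated 10 min at RT with compound over a concentration range. Substrate mix (H3K4me3 12.5 µM, α-KG 25 µM, Fe²⁺, ascorbate, NAD⁺, FDH) was added, and NADH fluorescence change over 30 min gave dose-response curves.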
`Cc1noc(C)c1C(=O)N[C@H]1CO[C@H]2[C@@H]1OC[C@H]2OCc1ccccc1` was tested, and the Potency was inconclusive: 28.2 µM [inhibitor, single point]. `Cc1cc(C)n2nc(N(Cc3ccc(C#N)cc3)S(=O)(=O)c3ccc(Cl)cc3)nc2n1` was tested, and the “activity change, negative = inhibition” value was inactive: 13.3%. In the case of `Fc1cccc(NC(=S)NCCc2c[nH]c3ccccc23)c1`, the “activity change, negative = inhibition” value is reported as inactive: -13.9%. In the case of `CCOc1cccc(C(=O)N(Cc2ccc(F)cc2)Cc2ccco2)c1`, the Potency is reported as inconclusive: 15.8 µM [inhibitor, partial curve, poor fit]. With `O=C(c1cc(C2CC2)nc2onc(C3CCCNC3)c12)N1CCCCC1` (stereo not drawn) the Potency was inconclusive: 56.2 µM [inhibitor, partial curve]. For `CN(C)C[C@@H]1CN(Cc2ccccc2)C[C@H]1NC(=O)c1ccnn1C`, the “activity change, negative = inhibition” value was inactive: -12.1%. With `Nc1nc(N)c(N=Nc2ccc(S(N)(=O)=O)cc2)c(=O)[nH]1` the Potency was inconclusive: 11.2 µM [inhibitor, partial curve, poor fit]. For `Cc1ccc(C2=NC3(CCN(C(=O)c4cccc5[nH]ccc45)CC3)ON2)cc1`, the Potency was active: 31.6 µM. For `CCOC(=O)c1c(NC(=O)COc2ccc(C(C)(C)C)cc2)sc2c1CCCC2`, the Potency was inconclusive: 35.5 µM [inhibitor, single point]. For `CC(C(=O)Nc1ccccc1)N(C)Cc1ccc2ccccc2c1` (stereo not drawn), the Potency was inconclusive: 39.8 µM [inhibitor, single point]. For `Cc1ccc(NC(=O)C2=Cc3sc4c(c3CS2)CCCC4)cc1C`, the “activity change, negative = inhibition” value was inactive: -28.1%. In the case of `CCOc1ccc(/C=C/c2nc(C#N)c(NCCCN(C)C)o2)cc1`, the Potency is reported as inconclusive: 31.6 µM [inhibitor, partial curve, poor fit]. For `CCc1ccc2oc(-c3ccc(NC(=O)c4cccc(Cl)c4Cl)cc3)nc2c1`, the Potency was inconclusive: 28.2 µM [inhibitor, partial curve, poor fit]. For `COc1ccc2c(c1)O/C(=C\c1ccccc1C)C2=O`, the Potency was inconclusive: 39.8 µM [inhibitor, single point]. In the case of `O=C1CN(C(=O)Cn2ccc3ccc(OCc4ccccc4)cc32)CCN1`, the “activity change, negative = inhibition” value is reported as inactive: 5.33%. In the case of `CCOc1ccccc1NC(=O)CSc1ccc2nc(-c3ccccc3)cn2n1`, the Potency is reported as inconclusive: 35.5 µM [inhibitor, partial curve, poor fit]. In the case of `COc1ccc(-c2nnc3c(C(=O)Nc4cccc5ccccc45)cccn23)cc1`, the Potency is reported as inconclusive: 39.8 µM [inhibitor, single point]. In the case of `CN1CC(=O)N(C2CCNCC2)Cc2c1ncnc2N1CCc2ccccc2C1`, the Potency is reported as inconclusive: 50.1 µM [inhibitor, partial curve, poor fit]. With `CC(Cc1ccncc1)Nc1nccc(-c2cnn(-c3ccccc3)c2)n1` (stereo not drawn) the Potency was active: 31.6 µM. In the case of `CCOc1ccc(CNC(=O)C2CCCN(c3nn4cc(-c5ccc(F)cc5)nc4s3)C2)cc1` (stereo not drawn), the “activity change, negative = inhibition” value is reported as inactive: -23%. With `COc1cc(C(=O)N2CCN(C(=O)OC(C)(C)C)CC2)ccc1OCc1ccccc1` the “activity change, negative = inhibition” value was inactive: 9.69%. For `CCOC(=O)CSC1=C(C#N)C(c2ccccc2C)C2=C(CCCC2=O)N1` (stereo not drawn), the Potency was inconclusive: 22.4 µM [inhibitor, single point]. For `CCc1ccc2oc(C(=O)NCC(c3ccco3)N(C)C)cc(=O)c2c1` (stereo not drawn), the “activity change, negative = inhibition” value was inactive: 2.22%. `COc1cc2ccccc2cc1C(=O)N1CCN(c2nc3c(F)cc(F)cc3s2)CC1` was tested, and the Potency was inconclusive: 28.2 µM [inhibitor, partial curve, poor fit]. `CCCC(=O)Nc1cc(-c2nnc3c4ccccc4c(C)nn23)ccc1C` was tested, and the Potency was inconclusive: 15.8 µM [inhibitor, partial curve, poor fit]. For `O=C(C1CCOCC1)N1CCC(Oc2ccccc2-c2nc(-c3ccccc3)no2)C1` (stereo not drawn), the Potency was inconclusive: 31.6 µM [inhibitor, partial curve, poor fit]. With `Nc1nccnc1C(=O)NCc1ccc(N2CCc3ccccc3C2)nc1` the Potency was inconclusive: 22.4 µM [inhibitor, partial curve, poor fit]. For `Cc1ccc(C(=O)N2CCn3c(nnc3[C@@H]3C[C@@H](O)CN3C(C)C)C2)cn1`, the Potency was inconclusive: 28.2 µM [inhibitor, partial curve]. For `Cc1ccc(-c2cc(C(=O)NCCO)c3ccccc3n2)cc1`, the Potency was inconclusive: 7.08 µM [inhibitor, partial curve, poor fit]. For `Cc1csc(NC(=O)c2nc3c(o2)CCN(CCCc2ccccc2)CC3)n1`, the Potency was inconclusive: 44.7 µM [inhibitor, partial curve, poor fit]. `c1ccc(-c2[nH]nc3ncc(-c4cn[nH]c4)nc23)cc1` was tested, and the Potency was active: 44.7 µM. `CCOC(=O)Cn1c(CN2CCN(c3ccc(OC)cc3)CC2)nc2c1c(=O)[nH]c(=O)n2C` was tested, and the Potency was inconclusive: 15.8 µM [inhibitor, partial curve, poor fit]. For `Cc1cc(OCC(=O)NC(C)C)c2c(C)c(C)c(=O)oc2c1`, the Potency was inconclusive: 10 µM [inhibitor, partial curve, poor fit]. `COc1ccc(CCNC(=O)Cn2c(-c3ccc(F)cc3)cc(C(C)=O)c2C)cc1OC` was tested, and the Potency was inconclusive: 5.01 µM [inhibitor, partial curve, poor fit]. `COc1ccc(OC)c(NC(=O)CC2CC3CCC2C3)c1` (stereo not drawn) was tested, and the “activity change, negative = inhibition” value was inactive: 21.8%. With `CCOc1ccc(N(CCC#N)C(=O)Cn2nc(C(=O)O)c3ccccc3c2=O)cc1` the “activity change, negative = inhibition” value was inactive: -1%. `Cc1ccc(-c2[nH]c(-c3ccccc3)nc2SCC(=O)Nc2nccs2)cc1` was tested, and the “activity change, negative = inhibition” value was inactive: -2.28%. In the case of `Cc1ccsc1C(=O)NCc1ccccn1`, the “activity change, negative = inhibition” value is reported as inactive: 5.93%. With `Cn1c(=O)n(C)c2cc(N3CCOCC3)c(NS(=O)(=O)c3ccc(Cl)cc3)cc21` the “activity change, negative = inhibition” value was inactive: 1.74%. In the case of `COc1ccccc1N1CCN(C(=O)c2cc3c(-c4ccccc4F)nn(C)c3s2)CC1`, the Potency is reported as inconclusive: 22.4 µM [inhibitor, single point]. With `CC1C=CC(C)N1c1ncnc2c1CN(C1CCCNCC1)C(=O)CN2C` (stereo not drawn) the Potency was inconclusive: 50.1 µM [inhibitor, partial curve]. In the case of `CN1CCC(N[C@H]2[C@H](O)[C@H](O)C[C@@H]2c2ccc(N3CCOCC3)nc2)CC1`, the Potency is reported as active: 31.6 µM. In the case of `O=C(CCNS(=O)(=O)c1ccc2c(c1)CCN2C(=O)C1CC1)N1CCN(c2cccc(C(F)(F)F)c2)CC1`, the Potency is reported as inconclusive: 35.5 µM [inhibitor, single point].
